Results on 138 sequences are retold here after publication PMC5515408.

Some of the results follow. At the low end of the ranking the order means little.

This assay concerns MYC (p64) + MAX (p21), in MYC:MAX. Nature of the assay: protein-binding microarray (anti-MAX antibody). To be noted: PBM: 15 mM Tris-HCl pH 7.5, 100 mM KCl, 0.075% NP40, 7.5 mM beta-mercaptoethanol, 375 ng/ul BSA, 8 ng/ul poly(dA-dT):(dA-dT), 550 ng complex, 60 min, room …; high values mean tight binding; double strand, one strand shown; sequences stand for … in CCGGC…TTAATAGCTAAGATTACTATATCGACG
As to TGAAGTATAGTA, the binding signal (log2 normalized fluorescence) is -0.0762.
As for TGATACGTAGTA, the binding signal (log2 normalized fluorescence) was -0.252.
As for TGAAAGTGAGTA, the figure is 0.0332; as for TGAGGTACGGTA, 0.134; as for TGAAGGTCTGTA, -0.109.
The value for TGATATTTCGTA was -0.108; that for TTACACGTGGTT was 0.721; that for AGCTGGATACTC was 0.155.
Consider TGAAAAATTGTA, for which the binding signal (log2 normalized fluorescence) is -0.139.
As for TGAGAGTCTGTA, the figure is -0.0773; as for TGACGTCTTGTA, 0.0699.
The value for TGACCCATTGTA was 0.00975; that for TGAGCTTATGTA was 0.0336; that for TGACTAGAAGTA was -0.0985.
Take TGACAGTAGGTA: the binding signal (log2 normalized fluorescence) came out at 0.0916.
The value for TGACCGAGTGTA was 0.203; that for TGACGCTCCGTA was 0.159; that for TGGCACCTGGTT was 0.342.
The value for TGAACTGCCGTA was -0.0474; that for GCGCACGTGGTA was 0.813.
For the sequence TGACAAACTGTA, the binding signal (log2 normalized fluorescence) is 0.119.
As to TGAGTCCTGGTA, the binding signal (log2 normalized fluorescence) was -0.105.
With TGATCACAAGTA, the binding signal (log2 normalized fluorescence) came out at 0.151.
The value for TGATTTTTTGTA was -0.164.
As for CGACACGTGTTA, the figure is 0.999; as for TGAGCGTAGGTA, -0.0841.
The value for TGAGGGTGGGTA was 0.446.
For the sequence TGAGACGGGGTA, the binding signal (log2 normalized fluorescence) turned out to be 0.303.
Take TGAGCGAGAGTA: the binding signal (log2 normalized fluorescence) is -0.00783.
As for TGATCGAATGTA, the figure is 0.0168.
As for TGATGTTATGTA, the figure is -0.0198.
The value for TGAGTGATGGTA was 0.199.
For the sequence TGAGCACGTGTA, the binding signal (log2 normalized fluorescence) was found to be 0.769.
The value for TGATCGGAAGTA was -0.0273; that for TGAACACGCGTA was 0.448; that for TGACAAGGCGTA was 0.0204.
As for TGAAAACTAGTA, the figure is -0.0565; as for TGAACTGGTGTA, 0.122; as for TGATTCATTGTA, 0.0737.
The value for TGATGGTGTGTA was 0.317; that for TGAGCGCTCGTA was 0.0385; that for TGAGTTTTGGTA was -0.201.
TGACTTGACGTA: the binding signal (log2 normalized fluorescence) is 0.101.
The value for TGACAATACGTA was 0.229; that for TGAGCTGGCGTA was -0.00689; that for TGATCGGATGTA was 0.0998.
In the case of TGACGATGAGTA, the binding signal (log2 normalized fluorescence) came to 0.0347.
As for TGATAGCTCGTA, the figure is -0.122; as for TGAATACACGTA, 0.295; as for TGAAACGTGGGA, 0.648.
As for TGATGAGACGTA, the figure is -0.0198; as for TGACACTCGGTA, 0.448.
As for TGAGGTAGAGTA, the binding signal (log2 normalized fluorescence) was -0.164.
As for TGAACTCCAGTA, the binding signal (log2 normalized fluorescence) was determined as 0.0204.
As for TGACGCTTAGTA, the binding signal (log2 normalized fluorescence) is 0.169.
As for TGACCAGCAGTA, the figure is 0.146.
The value for TGCCACCTGGTA was 0.461; that for GGACACGCGGTA was 0.807; that for TGATAGGCGGTA was -0.217.
The value for TGATGCACGGTA was 0.253.
As for TGACACGTGGAC, the binding signal (log2 normalized fluorescence) amounted to 0.734.
Turning to TGATGCGAGGTA, the binding signal (log2 normalized fluorescence) was found to be 0.373.
The value for TGACTATACGTA was 0.0059; that for TGACGGGTTGTA was 0.0959.
For the sequence TGACACCTGGGA, the binding signal (log2 normalized fluorescence) was 0.49.
Regarding TGACCCCATGTA, the binding signal (log2 normalized fluorescence) came out at 0.544.
The value for TGATACGTGGCA was 0.305.
The value for GTAGGTAAATCA was -0.0998; that for TGAACTAACGTA was 0.103.
The value for TGAAAGGGGGTA was 0.83; that for TTCGTCCAAGGC was -0.0761.
With TGATGCCTGGTA, the binding signal (log2 normalized fluorescence) was found to be 0.0849.
Consider TGAATTTTCGTA, for which the binding signal (log2 normalized fluorescence) was -0.0241.
The value for TGATCGTAAGTA was -0.144; that for TGAGGGATAGTA was 0.0576; that for TGACCCTTCGTA was -0.0205.
The value for TGACACGTTATA was 0.451; that for TGACCCGTGGTC was 0.399.
As for TGATCTACAGTA, the figure is -0.0994.
For TGACCCACCGTA, the binding signal (log2 normalized fluorescence) is 0.288.
Consider TGACATACTGTA, for which the binding signal (log2 normalized fluorescence) was 0.287.
The value for TGATGGAAAGTA was 0.164; that for TGATCAGCGGTA was -0.0394.
On to TGACGGATGGTA, for which the binding signal (log2 normalized fluorescence) was 0.302.
As for TGACCTGTAGTA, the figure is 0.206.
As for TGAAGAACGGTA, the figure is -0.00293; as for GGCCACGTGGTA, 0.783.
For the sequence TGACATAATGTA, the binding signal (log2 normalized fluorescence) was determined as 0.057.
As for TGATGAGGCGTA, the figure is -0.125; as for TGAGGAATTGTA, -0.116; as for TGATGCGATGTA, 0.156.
Regarding TGACGACCCGTA, the binding signal (log2 normalized fluorescence) came out at 0.383.
As for TGATTTGGGGTA, the figure is 0.096; as for TGAAAAAAGGTA, 0.0166.
As for TTGCACTTGGTA, the figure is 0.318; as for TGACTTGTTGTA, 0.106.
The value for TGAGTAGTTGTA was 0.0211.
For TGAGGCTCAGTA, the binding signal (log2 normalized fluorescence) came to 0.135.
As for TGAAAAGCTGTA, the figure is 0.155.
The value for TGAGAGCTGGTA was -0.00588; that for TGAAAACGAGTA was 0.118; that for TGATTGCTCGTA was 0.0285.
As for TGACCAACAGTA, the figure is 0.114; as for TGAAGCGATGTA, 0.265.
In the case of TGAGCCCTTGTA, the binding signal (log2 normalized fluorescence) was -0.0794.
The value for TGGGTCGTGGTA was 0.0754; that for TGAGCAATAGTA was 0.0885; that for TGACTTGTGGTA was 0.286.
The value for TGACATATAGTA was -0.0684.
The value for TGAGGCCGTGTA was 0.155; that for TGAGTAATGGTA was 0.0707.
With TATCACGTGGGA, the binding signal (log2 normalized fluorescence) came to 0.804.
The value for TGAGGGCCCGTA was 0.0858; that for TGATTTTAAGTA was 0.00855; that for TGATTCCTGGTA was -0.0648.
As for TGAACTCCTGTA, the binding signal (log2 normalized fluorescence) was 0.19.
As for TGAAGAGTTGTA, the figure is 0.0698.
TGAATTGTGGTA: the binding signal (log2 normalized fluorescence) turned out to be 0.192.
The value for TGAGATCCTGTA was 0.0331; that for GCACACGTGGTA was 0.906; that for TGACACGACGTA was 0.301.
The value for TGAACATACGTA was 0.202; that for TGAGGGCCAGTA was 0.0101; that for TGAGGGCATGTA was 0.342.
For the sequence TCGGTCTTCCTC, the binding signal (log2 normalized fluorescence) was -0.312.
The value for TGACGGAATGTA was 0.12; that for TGACCCTGTGTA was 0.121; that for TGAATACTCGTA was 0.00762.
TGATGGTGCGTA: the binding signal (log2 normalized fluorescence) stood at 0.0914.
As for TTCTTTATCACG, the binding signal (log2 normalized fluorescence) was 0.329.
In the case of TGAAACAGAGTA, the binding signal (log2 normalized fluorescence) worked out at 0.0767.
As for TGATAGTCAGTA, the figure is -0.00805; as for TGAAGGTGGGTA, 0.328.
The value for TGATTTGATGTA was -0.229.
As for TGAGGCAAGGTA, the binding signal (log2 normalized fluorescence) was determined as 0.281.
The value for TGAGCTTTGGTA was -0.2; that for TGGCACACGGTT was 0.419; that for TGAACCGCGGTA was 0.103.
